Results published in the supplement of paper PMC10369915.
The list shows a part of the results. No stated cut-off is given here; in the data, active = 3.2 or more and inactive = the rest. Most of these values are background signal.

Columns and labels:
Assay in all cases: enrichment score (SH2-bound / input frequency) (ratio); bacterial display of known human phosphotyrosine sites (pTyr-Var adds point mutants) read by sequencing; higher = stronger binding; tyrosines were phosphorylated by kinases first
Details in all cases: peptide library: pTyr-Var
SHP2 C-SH2 domain E139D = target: SHP2 C-SH2 domain E139D
[1] = target: SHP2 C-SH2 domain wild-type
SHP2 N-SH2 domain L43F = target: SHP2 N-SH2 domain L43F
SHP2 N-SH2 domain T42A = target: SHP2 N-SH2 domain T42A
SHP2 N-SH2 domain T52S = target: SHP2 N-SH2 domain T52S
[2] = target: SHP2 N-SH2 domain wild-type
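Further: displayed peptides selected on beads carrying the immobilized SH2 domain, with library peptides lacking any tyrosine serving as negative controls.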

Binder | enrichment score (SHP2 C-SH2 domain E139D) | enrichment score [1] | enrichment score (SHP2 N-SH2 domain L43F) | enrichment score (SHP2 N-SH2 domain T42A) | enrichment score (SHP2 N-SH2 domain T52S) | enrichment score [2]
TENAGYFFQVS [TTN_Y31721_R31724Q_YF] | inactive: 0.978 | inactive: 0.877 | inactive: 0.74 | inactive: 0.638 | inactive: 0.584 | inactive: 1.03
ENAGFYFQVSA [TTN_Y31722_R31724Q_YF] | inactive: 0.69 | inactive: 0.838 | inactive: 1.03 | inactive: 0.767 | inactive: 0.733 | inactive: 0.814
ENAGFYFRISA [TTN_Y31722_V31725I_YF] | inactive: 0.372 | inactive: 0.706 | inactive: 0.64 | inactive: 0.692 | inactive: 0.381 | inactive: 0.614
ENAGFYFRVSA [TTN_Y31722_YF] | inactive: 0.545 | inactive: 0.685 | inactive: 0.602 | inactive: 0.602 | inactive: 0.627 | inactive: 0.811
STKELYEKYMI [TTN_Y32175] | inactive: 0.868 | inactive: 0.786 | inactive: 0.724 | inactive: 0.768 | inactive: 0.798 | inactive: 0.721
AGREIYESDKC [TTN_Y4424] | inactive: 0.636 | inactive: 0.612 | inactive: 0.711 | inactive: 0.679 | inactive: 0.686 | inactive: 0.732
AGREIYESEKC [TTN_Y4424_D4427E] | inactive: 0.575 | inactive: 0.643 | inactive: 0.552 | inactive: 0.563 | inactive: 0.647 | inactive: 0.611
LLKAGYHGVLR [TTPA_Y100] | inactive: 1.51 | inactive: 1.2 | inactive: 1.33 | inactive: 1.11 | inactive: 1.56 | inactive: 1.56
LLKAGYQGVLR [TTPA_Y100_H101Q] | inactive: 0.879 | inactive: 1.14 | inactive: 1.3 | inactive: 0.947 | inactive: 0.958 | inactive: 0.849
SGPRRYTIAAL [TTR_Y125] | inactive: 0.489 | inactive: 0.379 | inactive: 0.385 | inactive: 0.406 | inactive: 0.454 | inactive: 0.465
SGRRRYTIAAL [TTR_Y125_P122R] | inactive: 0.191 | inactive: 0.242 | inactive: 0.263 | inactive: 0.221 | inactive: 0.213 | inactive: 0.271
SGPRCYTIAAL [TTR_Y125_R124C] | inactive: 0.879 | inactive: 0.995 | inactive: 1.11 | inactive: 0.871 | inactive: 1.23 | inactive: 1.1
TRNRDYDDIDD [TTYH2_Y424] | inactive: 0.274 | inactive: 0.212 | inactive: 0.206 | inactive: 0.175 | inactive: 0.336 | inactive: 0.154
TRNREYDDIDD [TTYH2_Y424_D423E] | inactive: 0.215 | inactive: 0.244 | inactive: 0.261 | inactive: 0.178 | inactive: 0.23 | inactive: 0.362
AVVEPYNSILT [TUBA1A_Y185] | inactive: 0.978 | inactive: 0.753 | inactive: 0.789 | inactive: 0.599 | inactive: 0.961 | inactive: 0.735
SAEKAYHEQLS [TUBA1A_Y282] | inactive: 0.622 | inactive: 0.697 | inactive: 0.792 | inactive: 0.611 | inactive: 0.673 | inactive: 0.62
KFDLMYAKLAF [TUBA1A_Y399_R402L] | inactive: 2.62 | active: 3.97 | active: 11.3 | active: 12.7 | active: 11.8 | active: 5.04
EEGEEYGGGGG [TUBA1A_Y451] | inactive: 0.58 | inactive: 0.371 | inactive: 0.416 | inactive: 0.475 | inactive: 0.505 | inactive: 0.476
RLSVDYGKKSK [TUBA3E_Y161_S162G] | inactive: 0.853 | inactive: 0.916 | inactive: 0.764 | inactive: 0.724 | inactive: 0.681 | inactive: 0.851
